Reference: the supplement of paper PMC8728848
Some of the results follow.

Assays:
Test in all cases: glycan array binding signal (z-score within array); higher = stronger binding
Conditions in all cases: glycan notation: IUPAC condensed, linker removed
[1] = target: Fuc(a1-2)Gal(b1-4)GlcNAc(b1-2)[Fuc(a1-2)Gal(b1-4)GlcNAc(b1-4)]Man(a1-3)[Fuc(a1-2)Gal(b1-4)GlcNAc(b1-2)Man(a1-6)]Man(b1-4)GlcNAc(b1-4)GlcNAc
Summary of the method: (§1)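 Glycan array data were curated from 3228 arrays in the Consortium for Functional Glycomics database and kept only where the protein sequence was available. Glycan names were converted to IUPAC-condensed notation, and columns mapping to the same glycan were averaged. The binding signal is a within-array Z-score, averaged across arrays of the same protein sequence at different concentrations or buffers and across linkers. Negative Z-scores can be read as non-binding.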

[2] = target: Fuc(a1-2)Gal(b1-4)GlcNAc(b1-3)Gal(b1-4)GlcNAc
Summary of the method: as §1

[3] = target: Fuc(a1-2)Gal(b1-4)GlcNAc(b1-3)Gal(b1-4)GlcNAc(b1-2)Man(a1-3)[Fuc(a1-2)Gal(b1-4)GlcNAc(b1-3)Gal(b1-4)GlcNAc(b1-2)Man(a1-6)]Man(b1-4)GlcNAc(b1-4)GlcNAc
Summary of the method: as §1

[4] = target: Fuc(a1-2)Gal(b1-4)GlcNAc(b1-3)Gal(b1-4)GlcNAc(b1-3)Gal(b1-4)GlcNAc
Summary of the method: as §1

[5] = target: Fuc(a1-2)Gal(b1-4)GlcNAc(b1-3)GalNAc
Summary of the method: as §1

[6] = target: Fuc(a1-2)Gal(b1-4)GlcNAc(b1-3)[Fuc(a1-2)Gal(b1-4)GlcNAc(b1-6)]GalNAc
Summary of the method: as §1

[7] = target: Fuc(a1-2)Gal(b1-4)GlcNAc(b1-3)[Fuc(a1-3)[Gal(b1-4)]GlcNAc(b1-6)]Gal(b1-4)Glc
Summary of the method: as §1

[8] = target: Fuc(a1-2)Gal(b1-4)GlcNAc(b1-6)GalNAc
Summary of the method: as §1

[9] = target: Fuc(a1-2)Gal(b1-4)GlcNAc6S
Summary of the method: as §1

[10] = target: Fuc(a1-2)Gal(b1-4)[Fuc(a1-3)]GlcNAc
Summary of the method: as §1

[11] = target: Fuc(a1-2)Gal(b1-4)[Fuc(a1-3)]GlcNAc(b1-2)Man(a1-3)[Fuc(a1-2)Gal(b1-4)[Fuc(a1-3)]GlcNAc(b1-2)Man(a1-6)]Man(b1-4)GlcNAc(b1-4)GlcNAc
Summary of the method: as §1

[12] = target: Fuc(a1-2)Gal(b1-4)[Fuc(a1-3)]GlcNAc(b1-2)Man(a1-3)[Fuc(a1-2)Gal(b1-4)[Fuc(a1-3)]GlcNAc(b1-2)Man(a1-6)]Man(b1-4)GlcNAc(b1-4)[Fuc(a1-6)]GlcNAc
Summary of the method: as §1

[13] = target: Fuc(a1-2)Gal(b1-4)[Fuc(a1-3)]GlcNAc(b1-2)[Fuc(a1-2)Gal(b1-4)[Fuc(a1-3)]GlcNAc(b1-4)]Man(a1-3)[Fuc(a1-2)Gal(b1-4)[Fuc(a1-3)]GlcNAc(b1-2)Man(a1-6)]Man(b1-4)GlcNAc(b1-4)GlcNAc
Summary of the method: as §1

[14] = target: Fuc(a1-2)Gal(b1-4)[Fuc(a1-3)]GlcNAc(b1-3)Gal(b1-4)[Fuc(a1-3)]GlcNAc
Summary of the method: as §1

[15] = target: Fuc(a1-2)Gal(b1-4)[Fuc(a1-3)]GlcNAc(b1-3)Gal(b1-4)[Fuc(a1-3)]GlcNAc(b1-3)Gal(b1-4)[Fuc(a1-3)]GlcNAc
Summary of the method: as §1

[16] = target: Fuc(a1-2)Gal(b1-4)[Fuc(a1-3)]GlcNAc(b1-3)GalNAc
Summary of the method: as §1

[17] = target: Fuc(a1-2)Gal(b1-4)[Fuc(a1-3)]GlcNAc(b1-3)[Neu5Ac(a2-6)Gal(b1-4)GlcNAc(b1-6)]Gal(b1-4)Glc
Summary of the method: as §1

[18] = target: Fuc(a1-2)Gal3S(b1-4)GlcNAc
Summary of the method: as §1

[19] = target: Fuc(a1-2)Gal6S(b1-3)GlcNAc
Summary of the method: as §1

[20] = target: Fuc(a1-2)Gal6S(b1-3)GlcNAc6S
Summary of the method: as §1

[21] = target: Fuc(a1-2)Gal6S(b1-4)Glc
Summary of the method: as §1

[22] = target: Fuc(a1-2)Gal6S(b1-4)Glc6S
Summary of the method: as §1

[23] = target: Fuc(a1-2)Gal6S(b1-4)GlcNAc
Summary of the method: as §1

[24] = target: Fuc(a1-2)[Gal(a1-3)]Gal
Summary of the method: as §1

[25] = target: Fuc(a1-2)[Gal(a1-3)]Gal(b1-3)GalNAc
Summary of the method: as §1

[26] = target: Fuc(a1-2)[Gal(a1-3)]Gal(b1-3)GalNAc(b1-3)Gal(a1-4)Gal(b1-4)Glc
Summary of the method: as §1

[27] = target: Fuc(a1-2)[Gal(a1-3)]Gal(b1-3)GlcNAc
Summary of the method: as §1

[28] = target: Fuc(a1-2)[Gal(a1-3)]Gal(b1-3)GlcNAc(b1-2)Man(a1-3)[Fuc(a1-2)[Gal(a1-3)]Gal(b1-3)GlcNAc(b1-2)Man(a1-6)]Man(b1-4)GlcNAc(b1-4)GlcNAc
Summary of the method: as §1

[29] = target: Fuc(a1-2)[Gal(a1-3)]Gal(b1-3)GlcNAc(b1-2)Man(a1-3)[Fuc(a1-2)[Gal(a1-3)]Gal(b1-3)GlcNAc(b1-2)Man(a1-6)]Man(b1-4)GlcNAc(b1-4)[Fuc(a1-6)]GlcNAc
Summary of the method: as §1

[30] = target: Fuc(a1-2)[Gal(a1-3)]Gal(b1-3)GlcNAc(b1-3)GalNAc
Summary of the method: as §1

B1: PpFlo1 (Pichia pastoris) (protein)
chain: MGSSHHHHHHSSGLVPRGSHMQESGDGDISDSAYACDIDATRYDGFNATIYEFQPGDGRLTRDPVFMSTGYLNRTQLHSITGVTDPGFSIYTPGVPTTTLYGIPNVNWENLLLELKGYFRAEVSGDYGLSLRNIDDSAILFFGKETAFQCCNENSISNEASTDYSLFTIFRQEGDETTNLDSFTYTQYLEAGKYYPVRTFFVNIERHAVFNFTMTLPDGTELTDFHNYIYQFGALDEEQCQA
In the case of B1, the “glycan array binding signal (z-score)” value [1] is reported as -0.004, the “glycan array binding signal (z-score)” value [2] is reported as -0.549 and the “glycan array binding signal (z-score)” value [3] is reported as 0.179. The “glycan array binding signal (z-score)” value [4] was -0.392, the “glycan array binding signal (z-score)” value [5] was 9.01 and the “glycan array binding signal (z-score)” value [6] was 0.265. For the same binder, the “glycan array binding signal (z-score)” value [7] was -0.112, the “glycan array binding signal (z-score)” value [8] was -0.281 and the “glycan array binding signal (z-score)” value [9] was -0.106. The “glycan array binding signal (z-score)” value [10] was 0.142, the “glycan array binding signal (z-score)” value [11] was 0.317 and the “glycan array binding signal (z-score)” value [12] was 0.805. For the same binder, the “glycan array binding signal (z-score)” value [13] was 0.16, the “glycan array binding signal (z-score)” value [14] was -0.253 and the “glycan array binding signal (z-score)” value [15] was 0.218. The “glycan array binding signal (z-score)” value [16] was 0.492, the “glycan array binding signal (z-score)” value [17] was -0.279 and the “glycan array binding signal (z-score)” value [18] was -0.794. The “glycan array binding signal (z-score)” value [19] was -0.003, the “glycan array binding signal (z-score)” value [20] was 0.088 and the “glycan array binding signal (z-score)” value [21] was -0.377. For the same binder, the “glycan array binding signal (z-score)” value [22] was -0.232, the “glycan array binding signal (z-score)” value [23] was -0.6 and the “glycan array binding signal (z-score)” value [24] was -0.335. The “glycan array binding signal (z-score)” value [25] was 0.182, the “glycan array binding signal (z-score)” value [26] was -0.456 and the “glycan array binding signal (z-score)” value [27] was 0.334. For the same binder, the “glycan array binding signal (z-score)” value [28] was -0.28, the “glycan array binding signal (z-score)” value [29] was -0.286 and the “glycan array binding signal (z-score)” value [30] was -0.494.
